This is an account of results in US20170029494A1 (GlaxoSmithKline, published 2017).

Several values for one entry are separate records, joined by “and”; a condition that tells them apart may be missing. Equal entries are not always repeated.

The target in test [1] is T1, human VEGF165 (human, UniProt P15692 27-191).
T1 construct: mature; Two sources were used (GSK in-house HEK293); also called hVEGF165; rhVEGF165
T1 sequence (looked up): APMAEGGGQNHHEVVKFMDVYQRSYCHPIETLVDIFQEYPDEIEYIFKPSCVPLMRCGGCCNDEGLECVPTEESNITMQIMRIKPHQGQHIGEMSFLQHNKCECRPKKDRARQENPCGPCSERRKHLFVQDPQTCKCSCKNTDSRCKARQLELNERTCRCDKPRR
Kind of test: MSD RBA, VEGF binding to coated VEGFR1.

Test [2] addresses T1, human VEGF165. Nature of the test: MSD RBA, VEGF binding to coated VEGFR2 (first set).
Test [3] deals with T1, human VEGF165. Nature of the test: SPR Biacore T100, Protein A capture, VEGF165 analyte, 37 C, 1:1 model. Background: SPR reads the build-up and loss of mass on a sensor chip optically.
For test [4], the target named is T1, human VEGF165. Nature of the test: SPR Biacore T100, Protein A capture, VEGF165 analyte, 37 C, 1:1 model (kd: At the limit of measurement).
The target of test [5] is T1, human VEGF165. Kind of test: SPR Biacore T100, Protein A capture, VEGF165 analyte, 37 C, 1:1 model (biphasic curves).
The target in test [6] is T1, human VEGF165. Kind of test: SPR Biacore T100, Protein A capture, VEGF165 analyte, 37 C, 1:1 model (kd: Too tight; fit not ideal).
Test [7] addresses T1, human VEGF165. Nature of the test: cell-based or functional assay.
The target in test [8] is T1, human VEGF165. Kind of test: MSD RBA, VEGF binding to coated VEGFR1, no pre-incubation.
The target in test [9] is T1, human VEGF165. Kind of test: MSD RBA, VEGF binding to coated VEGFR2, no pre-incubation.
Test [10] deals with T1, human VEGF165. Nature of the test: SPR Biacore T100, Protein A capture, VEGF165 analyte, 37 C, 1:1 model. This is another data set of the same source.
Test [11] addresses T1, human VEGF165. Kind of test: SPR Biacore T100, Protein A capture, VEGF165 analyte, 37 C, 1:1 model (kd: Too tight).
Test [12] has as its target T1, human VEGF165. Kind of test: SPR Biacore T100, Protein A capture, VEGF165 analyte, 37 C, 1:1 model. The source holds these as a separate data set.
The target in test [13] is T1, human VEGF165. Kind of test: SPR Biacore T100, Protein A capture, VEGF165 analyte, 37 C, 1:1 model (Kd, KD: Out of the range).
Test [14] addresses T1, human VEGF165. Kind of test: SPR Biacore T100, Protein A capture, VEGF165 analyte, 37 C, 1:1 model (off-rate near limit of measurement).
In test [15] the target is T1, human VEGF165. Nature of the test: MSD RBA, VEGF binding to coated VEGFR2 (second set).
Test [16] has as its target T1, human VEGF165. Kind of test: ITC, VEGF165 titrated into construct, 25 C, 1:1 model. Background: In ITC the heat of successive injections is recorded.
The target of test [17] is T1, human VEGF165. Kind of test: MSD RBA, VEGF binding to coated VEGFR2, no pre-incubation. The source holds these as a separate data set.
In test [18] the target is T1, human VEGF165. Kind of test: SPR Biacore T100, Protein A capture, VEGF165 analyte, 37 C, 1:1 model. The source holds these as a separate data set.

B1: DMS30009 (DT02-K-044-085-AS Linker-Fc-Albumin Domain 3 Linker-DT02-K-044-085 Vk-Vk dAb-Fc-dAb) (Fc fusion)
chain: DIQMTQSPSSLSASVGDRVTITCRASQWIGPELKWYQQKPGKAPKLLIYHGSILQSGVPSRFSGSGSGTDFTLTISSLQPEDFATYYCQQYMYYPHTFGQGTKVEIKR[human IgG1 Fc and a few adjoining residues not shown]EVDETYVPKEFNAETFTFHADDIQMTQSPSSLSASVGDRVTITCRASQWIGPELKWYQQKPGKAPKLLIYHGSILQSGVPSRFSGSGSGTDFTLTISSLQPEDFATYYCQQYMYYPHTFGQGTKVEIKR
B1: in the test with human VEGF165 [1], the EC50 – broadly, the concentration at which the effect is half-maximal – was 0.00417 µg/mL and 0.042 nM; the “Max. % Inhibition” value came to 92.6%. In the test with human VEGF165 [2], the EC50 is 0.00552 µg/mL and 0.055 nM; the “Max. % Inhibition” value was found to be 86.6%. For the same molecule, in the test with human VEGF165 [3], the Kd (as a rule, the free concentration of one partner at which half of the binding sites on the other are occupied at equilibrium, for simple one-to-one binding) was 2.3 pM.

B2: DMS30014 (C-terminal Fc fusion of K-044-085 dAb, Albumin Domain 3 Linker, Fc-dAb) (Fc fusion)
chain: [human IgG1 Fc not shown]EVDETYVPKEFNAETFTFHADDIQMTQSPSSLSASVGDRVTITCRASQWIGPELKWYQQKPGKAPKLLIYHGSILQSGVPSRFSGSGSGTDFTLTISSLQPEDFATYYCQQYMYYPHTFGQGTKVEIKR
notes: Vk Fc-dAb, Fc starts THT; dimer
With B2, the kon – broadly, the rate constant with which the complex forms – with human VEGF165 [4] amounted to 8.68e+06 M⁻¹ s⁻¹.

B3: N085 TVAAPS (N-terminal Fc fusion of K-044-085 dAb (TVAAPS)) (Fc fusion)
chain: DIQMTQSPSSLSASVGDRVTITCRASQWIGPELKWYQQKPGKAPKLLIYHGSILQSGVPSRFSGSGSGTDFTLTISSLQPEDFATYYCQQYMYYPHTFGQGTKVEIKRTVAA[human IgG1 Fc and a few adjoining residues not shown]
notes: Vk dAb-Fc; dimer; also called 1xTVAAPS
As to B3, in the test with human VEGF165 [5], binding was put at a Kd of 7.86 pM; the koff (as a rule, the first-order rate constant of dissociation) came out at 9.08e-05 s⁻¹; the kon was determined as 1.16e+07 M⁻¹ s⁻¹. In the test with human VEGF165 [6], this molecule came in with an on-rate (kon) of 8.07e+06 M⁻¹ s⁻¹.

B4: DMS30004 (C-terminal Fc fusion of K-044-255 dAb, GS(TVAAPSGS)x3 Linker, Fc-dAb) (Fc fusion)
chain: [human IgG1 Fc and a few adjoining residues not shown]GSTVAAPSGSTVAAPSGSTVAAPSGSDIQMTQSPSSLSASVGDRVTITCRASQWIGPELKWYQQKPGKAPKLLIYHGSILQSGVPSRFSGSGSGTDFTLTISSLQPEDFATYYCQQYMYYPKTFGQGTKVEIKR
notes: Vk Fc-dAb; dimer
On to B4, for which the “HUVEC proliferation, maximal inhibition” value in the test with human VEGF165 [7] was about 100%. In the test with human VEGF165 [8], the EC50 was 0.0038 µg/mL and 0.051 nM; the “Max. % Inhibition” value came out at 87.1%. In addition, in the test with human VEGF165 [9], the concentration giving a half-maximal response (EC50) is 0.00312 µg/mL and 0.042 nM; the “Max. % Inhibition” value worked out at 91%. In the test with human VEGF165 [10], this molecule returned a Kd of 4 pM.

B5: DMS30013 (C-terminal Fc fusion of K-044-085 dAb, Albumin Domain 3 Linker, Fc-dAb) (Fc fusion)
chain: [human IgG1 Fc and a few adjoining residues not shown]EVDETYVPKEFNAETFTFHADDIQMTQSPSSLSASVGDRVTITCRASQWIGPELKWYQQKPGKAPKLLIYHGSILQSGVPSRFSGSGSGTDFTLTISSLQPEDFATYYCQQYMYYPHTFGQGTKVEIKR
notes: Vk Fc-dAb, Fc starts AS
In the test with human VEGF165 [11], B5 registered a kon of 8.74e+06 M⁻¹ s⁻¹.

B6: C085 alb d 2 (C-terminal Fc fusion of K-044-085 dAb (Albumin Domain 2)) (Fc fusion)
chain: [human IgG1 Fc not shown]ENDEMPADLPSLAADFVESKDDIQMTQSPSSLSASVGDRVTITCRASQWIGPELKWYQQKPGKAPKLLIYHGSILQSGVPSRFSGSGSGTDFTLTISSLQPEDFATYYCQQYMYYPHTFGQGTKVEIKR
notes: Vk Fc-dAb; dimer; also called C085 Alb DOM2
In the case of B6, in the test with human VEGF165 [11], the kon worked out at 7.52e+06 M⁻¹ s⁻¹. The kon values of the last two molecules are within 1.5-fold of each other.

B7: DMS30026 (C-terminal Fc fusion of K-044-085 dAb ((TGLDSP)x4)) (Fc fusion)
chain: [human IgG1 Fc not shown]TGLDSPTGLDSPTGLDSPTGLDSPDIQMTQSPSSLSASVGDRVTITCRASQWIGPELKWYQQKPGKAPKLLIYHGSILQSGVPSRFSGSGSGTDFTLTISSLQPEDFATYYCQQYMYYPHTFGQGTKVEIKR
notes: dimer; also called C085 Fibrx4; C085 Fibr4
In the case of B7, the on-rate (kon) with human VEGF165 [12] worked out at 8.12e+06 M⁻¹ s⁻¹; in the test with human VEGF165 [13], 8.49e+06 M⁻¹ s⁻¹; in the test with human VEGF165 [4] it was 7.72e+06 M⁻¹ s⁻¹. In addition, binding in the test with human VEGF165 [14] was characterised by a dissociation constant (Kd) of 1.59 pM. In the test with human VEGF165 [14], the koff was 1.29e-05 s⁻¹.

B8: DMS30023 (DT02-K-044-085-HingeIgG1Linker-Fc-GS(TVAAPSGS)x3 Linker-DT02-K-044-085 dAb-Fc-dAb) (Fc fusion)
chain: DIQMTQSPSSLSASVGDRVTITCRASQWIGPELKWYQQKPGKAPKLLIYHGSILQSGVPSRFSGSGSGTDFTLTISSLQPEDFATYYCQQYMYYPHTFGQGTKVEIKRV[human IgG1 Fc with changes not shown]GSTVAAPSGSTVAAPSGSTVAAPSGSDIQMTQSPSSLSASVGDRVTITCRASQWIGPELKWYQQKPGKAPKLLIYHGSILQSGVPSRFSGSGSGTDFTLTISSLQPEDFATYYCQQYMYYPHTFGQGTKVEIKR
notes: dimer; also called DMS30023ITC; DMS30023 (CR290911)
Turning to B8, in the test with human VEGF165 [15], the EC50 was 0.0052 µg/mL and 0.052 nM; the “Max. % Inhibition” value turned out to be 74.7%. In the test with human VEGF165 [16], the Ka is 3.78e+07 M⁻¹, the “N (VEGF165 (monomer)/antibody)” value turned out to be 2.1, the ΔH was -19.3 kcal/mol and the ΔS was -29.9 cal/mol/deg. In addition, the EC50 in the test with human VEGF165 [17] is 0.00323 µg/mL and 0.031 nM. In the test with human VEGF165 [18], this molecule registered a Kd of 6.85 pM, a koff of 9.13e-05 s⁻¹ and a kon of 1.33e+07 M⁻¹ s⁻¹.
